# In patent publication US20030099944A1, “Combination therapy involving drugs which target cellular proteins and drugs which target pathogen-encoded proteins” (priority 1998, published 2003):
# Tested on: HSV-1 DNA replication
# Type: cell-based, herpes simplex virus type 1
smiles,measurement,value
"O=C(O)CP(=O)(O)O [PAA, phosphonoacetic acid]",fold viral DNA replication during 20 hours after release from PAA block,about 5 fold
